This note sets out measurements from the supplement of paper PMC4967469.

The IC50 comes from the fitted curve, where viability falls to half of the control; fits outside the tested doses are given as limits. AUC sums up the same curve from the lowest dose to the 256-fold higher top dose; the more sensitive the line, the further below 1. For part of these data: An inferred top dose comes from the curve model; the source does not state it. For part of these data: Where an entry number is given, a second screen of the drug exists; the two often differ.

Common to all, as to test: Viability of human cancer cell lines after 72 h of drug (GDSC screen)
Compound in one test: C/C(O)=C(\C#N)C(=O)Nc1cc(Br)ccc1Br [LFM-A13]
The following applies: top dose 16 µM; top dose inferred. Here is the method: (§1)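 Human cancer cell lines in 384-well plates, medium with 10% serum, drug for 72 h over a 256-fold dose range (nine 2-fold or five 4-fold steps up to the top dose). Adherent lines were fixed and stained with the nucleic acid dye Syto60, suspension lines read with resazurin; signal relative to control wells, capped at 0 and 100%. One two-parameter sigmoid per drug and line, fitted in a mixed model over all curves with the slope shared within a line.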

Compound in the next test: CC(C)c1ccccc1Cc1cc(C(=O)Nc2ccc(S(=O)(=O)c3ccccc3C(C)(C)C)cc2)c(O)c(O)c1O [TW-37]
The following applies: top dose 5 µM. Here is the method:
as §1

Compound in another test: CC(O)(CS(=O)(=O)c1ccc(F)cc1)C(=O)Nc1ccc(C#N)c(C(F)(F)F)c1 [Bicalutamide]
The following applies: top dose inferred. The protocol:
as §1

Compound in the next test: CCNC(=O)c1noc(-c2cc(C(C)C)c(O)cc2O)c1-c1ccc(CN2CCOCC2)cc1 [AUY922]
The following applies: top dose 0.256 µM; top dose inferred. The protocol:
as §1

Compound in a further test: Cc1ccc(Nc2cc(-c3cccc(N4C(=O)c5ccccc5C4=O)c3)ncn2)cc1NS(C)(=O)=O [KIN001-270]
The following applies: top dose 20 µM; top dose inferred. Here is the method:
as §1

Compound in the next test: Cc1cn(-c2cc(NC(=O)c3ccc(C)c(Nc4nccc(-c5cccnc5)n4)c3)cc(C(F)(F)F)c2)cn1 [Nilotinib]
The following applies: top dose 2 µM. The protocol: as §1

Compound in a further test: Nc1ccn([C@@H]2O[C@H](CO)[C@@H](O)C2(F)F)c(=O)n1 [Gemcitabine]
The following applies: top dose 1.024 µM. Here is the method: as §1

Compound in another test: O=S(=O)(c1ccccc1)N(CC(F)(F)F)c1ccc(C(O)(C(F)(F)F)C(F)(F)F)cc1 [T0901317]
The following applies: top dose 10.24 µM; top dose inferred. Here is the method: as §1

Compound in the next test: S=C(NCc1ccc2c(c1)OCO2)N1CCN(c2ncnc3c2oc2ccccc23)CC1 [MP470]
The following applies: top dose 20 µM; top dose inferred. Here is the method: as §1

The mark [1] stands for this setting: top dose 1.024 µM, screen: GDSC drug entry 150.
Where [2] appears, read: top dose 10 µM, screen: GDSC drug entry 1502.

On to JHH-4 (liver, adherent), for which the AUC is 0.983 with LFM-A13; 0.641 in the test with TW-37; 0.981 in the test with Bicalutamide (setting [1]); 0.975 in the test with Bicalutamide (setting [2]); 0.987 with AUY922; 0.865 in the test with KIN001-270. Moreover, the AUC worked out at 0.984 in the test with Nilotinib, 0.212 in the test with Gemcitabine, 0.985 with T0901317 and 0.908 with MP470. In addition, the IC50 with LFM-A13 is > 16000 nM; with TW-37, 763 nM; with Bicalutamide (setting [1]), > 1020 nM; in the test with Bicalutamide (setting [2]), > 10000 nM; with AUY922, > 256 nM; with KIN001-270 it was 17600 nM. Also, the IC50 with Nilotinib was > 2000 nM; with Gemcitabine it was 9.18 nM; in the test with T0901317, > 10200 nM; with MP470, > 20000 nM.
For “NCI-H1623 (lung adenocarcinoma, adherent)”, the AUC came out at 0.985 with LFM-A13; 0.569 with TW-37; 0.985 in the test with Bicalutamide (setting [1]); 0.978 with Bicalutamide (setting [2]); 0.974 with AUY922; 0.975 with KIN001-270. The AUC in the test with Nilotinib is 0.985; with Gemcitabine, 0.612; in the test with T0901317 it was 0.985; with MP470 it was 0.974. Moreover, the IC50 with LFM-A13 was > 16000 nM; with TW-37 it was 503 nM; with Bicalutamide (setting [1]) it was > 1020 nM; in the test with Bicalutamide (setting [2]), > 10000 nM; in the test with AUY922, > 256 nM; with KIN001-270, > 20000 nM. Further, the IC50 in the test with Nilotinib was > 2000 nM; with Gemcitabine it was 139 nM; with T0901317 it was > 10200 nM; with MP470, > 20000 nM.
Take EW-7 (Ewing sarcoma, semi-adherent): the AUC in the test with LFM-A13 is 0.91; with TW-37, 0.873; in the test with Bicalutamide (setting [1]), 0.986; in the test with Bicalutamide (setting [2]), 0.982; with AUY922, 0.439; in the test with KIN001-270, 0.935. Further, the AUC in the test with Nilotinib stood at 0.984; in the test with Gemcitabine, 0.033; with T0901317, 0.99; in the test with MP470, 0.527. The IC50 was > 16000 nM in the test with LFM-A13; 3820 nM in the test with TW-37; > 1020 nM with Bicalutamide (setting [1]); > 10000 nM with Bicalutamide (setting [2]); 11.2 nM with AUY922; > 20000 nM in the test with KIN001-270. For the same cell line, the IC50 was > 2000 nM with Nilotinib, < 4 nM in the test with Gemcitabine, > 10200 nM in the test with T0901317 and 1460 nM with MP470.
For the cell line 42-MG-BA (glioma, adherent), the AUC in the test with LFM-A13 amounted to 0.969; with TW-37, 0.552; with Bicalutamide (setting [1]) it was 0.985; with Bicalutamide (setting [2]) it was 0.978; with AUY922 it was 0.672; with KIN001-270, 0.969. The AUC in the test with Nilotinib is 0.925; in the test with Gemcitabine, 0.537; with T0901317 it was 0.972; in the test with MP470 it was 0.974. Besides, the IC50 with LFM-A13 was > 16000 nM; with TW-37 it was 439 nM; in the test with Bicalutamide (setting [1]) it was > 1020 nM; with Bicalutamide (setting [2]), > 10000 nM; with AUY922 it was 50 nM; with KIN001-270 it was > 20000 nM. Besides, the IC50 with Nilotinib is > 2000 nM; with Gemcitabine, 81.6 nM; in the test with T0901317, > 10200 nM; with MP470 it was > 20000 nM.
On to NCI-H2452 (mesothelioma, adherent), for which the AUC with LFM-A13 worked out at 0.976; with TW-37 it was 0.644; with Bicalutamide (setting [1]) it was 0.984; with Bicalutamide (setting [2]), 0.857; with AUY922, 0.981; with KIN001-270, 0.982. Moreover, the AUC with Nilotinib was 0.984; in the test with Gemcitabine, 0.934; with T0901317, 0.984; with MP470, 0.922. The IC50 with LFM-A13 was > 16000 nM; in the test with TW-37, 846 nM; with Bicalutamide (setting [1]), > 1020 nM; with Bicalutamide (setting [2]) it was > 10000 nM; with AUY922, > 256 nM; in the test with KIN001-270 it was > 20000 nM. Further, the IC50 was > 2000 nM with Nilotinib, > 1020 nM with Gemcitabine, > 10200 nM with T0901317 and > 20000 nM in the test with MP470.
With “NCI-H2122 (lung adenocarcinoma, adherent)”, the AUC came to 0.966 with LFM-A13; 0.66 in the test with TW-37; 0.978 with Bicalutamide (setting [1]); 0.97 with Bicalutamide (setting [2]); 0.431 with AUY922; 0.988 in the test with KIN001-270. The AUC is 0.985 with Nilotinib, 0.072 with Gemcitabine, 0.985 with T0901317 and 0.986 with MP470. Moreover, the IC50 is > 16000 nM in the test with LFM-A13; 842 nM with TW-37; > 1020 nM with Bicalutamide (setting [1]); > 10000 nM with Bicalutamide (setting [2]); 10.5 nM with AUY922; > 20000 nM with KIN001-270. The IC50 with Nilotinib is > 2000 nM; in the test with Gemcitabine, < 4 nM; with T0901317, > 10200 nM; in the test with MP470 it was > 20000 nM.
